From PMC9037475
Results are given in words; binding and its absence hold for the method and conditions named. Binding seen in cells or lysates may run through a third protein. Some binding calls cover weakened binding; strength is not graded here. For part of these data: Where a sequence is shown, tags or fusion partners need not be part of it.

Sequences of proteins named here, by UniProt entry; tags and fusion partners are left off.
UniProt Q969H0: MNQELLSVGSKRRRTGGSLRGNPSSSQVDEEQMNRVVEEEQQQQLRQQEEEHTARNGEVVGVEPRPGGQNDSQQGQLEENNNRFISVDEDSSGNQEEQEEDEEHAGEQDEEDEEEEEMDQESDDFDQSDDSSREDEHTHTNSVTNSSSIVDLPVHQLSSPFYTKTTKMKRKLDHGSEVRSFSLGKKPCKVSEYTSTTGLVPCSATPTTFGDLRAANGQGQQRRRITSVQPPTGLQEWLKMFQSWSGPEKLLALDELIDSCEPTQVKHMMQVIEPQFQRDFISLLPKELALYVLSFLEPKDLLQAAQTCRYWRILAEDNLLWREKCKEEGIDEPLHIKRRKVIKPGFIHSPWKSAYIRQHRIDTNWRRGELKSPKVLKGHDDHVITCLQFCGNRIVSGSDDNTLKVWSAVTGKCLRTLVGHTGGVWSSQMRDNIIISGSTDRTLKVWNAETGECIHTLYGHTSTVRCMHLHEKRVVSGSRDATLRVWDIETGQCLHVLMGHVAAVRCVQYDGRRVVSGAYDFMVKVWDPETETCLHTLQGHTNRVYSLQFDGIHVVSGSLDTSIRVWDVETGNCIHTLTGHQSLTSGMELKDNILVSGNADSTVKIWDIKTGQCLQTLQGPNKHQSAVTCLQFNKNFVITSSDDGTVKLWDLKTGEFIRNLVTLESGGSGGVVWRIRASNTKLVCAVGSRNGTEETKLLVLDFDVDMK
UniProt P63208: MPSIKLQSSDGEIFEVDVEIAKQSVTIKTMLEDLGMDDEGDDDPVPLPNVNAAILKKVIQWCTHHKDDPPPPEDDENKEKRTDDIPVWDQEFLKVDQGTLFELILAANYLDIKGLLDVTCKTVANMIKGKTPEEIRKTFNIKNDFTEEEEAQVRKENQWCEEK
UniProt P01106: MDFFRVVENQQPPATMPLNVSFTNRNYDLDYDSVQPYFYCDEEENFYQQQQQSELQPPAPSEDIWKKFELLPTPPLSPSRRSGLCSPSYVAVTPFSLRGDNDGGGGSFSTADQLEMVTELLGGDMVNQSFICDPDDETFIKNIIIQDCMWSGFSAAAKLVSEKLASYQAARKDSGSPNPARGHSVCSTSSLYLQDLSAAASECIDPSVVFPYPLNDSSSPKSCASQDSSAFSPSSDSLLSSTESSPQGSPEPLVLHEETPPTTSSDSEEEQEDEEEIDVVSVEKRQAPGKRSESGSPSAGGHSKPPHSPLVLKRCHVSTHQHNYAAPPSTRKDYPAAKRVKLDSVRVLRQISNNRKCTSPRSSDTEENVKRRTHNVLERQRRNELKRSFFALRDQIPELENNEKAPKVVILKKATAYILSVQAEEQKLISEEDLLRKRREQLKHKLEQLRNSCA
UniProt P30281: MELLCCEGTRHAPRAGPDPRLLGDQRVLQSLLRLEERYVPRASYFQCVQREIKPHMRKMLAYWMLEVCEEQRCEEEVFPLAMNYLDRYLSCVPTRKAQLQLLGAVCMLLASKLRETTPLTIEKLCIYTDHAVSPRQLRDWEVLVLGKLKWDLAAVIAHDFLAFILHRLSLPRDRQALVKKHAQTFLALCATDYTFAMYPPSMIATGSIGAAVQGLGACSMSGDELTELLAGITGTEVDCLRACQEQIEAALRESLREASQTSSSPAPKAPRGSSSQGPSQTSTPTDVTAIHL

What was measured:
[1] = target: T1, Flag-Fbxl8 from Sf9 cells (F-box protein of purified SCF^Fbxl8) (UniProt Q96CD0); assay: co-IP; Sf9 cells co-infected with Flag-Fbxl8 or Flag-ΔF and Skp1, Cul1, Rbx1; Tween 20 lysis buffer; anti-Flag beads, washed 5 times; Coomassie stain
T1 sequence: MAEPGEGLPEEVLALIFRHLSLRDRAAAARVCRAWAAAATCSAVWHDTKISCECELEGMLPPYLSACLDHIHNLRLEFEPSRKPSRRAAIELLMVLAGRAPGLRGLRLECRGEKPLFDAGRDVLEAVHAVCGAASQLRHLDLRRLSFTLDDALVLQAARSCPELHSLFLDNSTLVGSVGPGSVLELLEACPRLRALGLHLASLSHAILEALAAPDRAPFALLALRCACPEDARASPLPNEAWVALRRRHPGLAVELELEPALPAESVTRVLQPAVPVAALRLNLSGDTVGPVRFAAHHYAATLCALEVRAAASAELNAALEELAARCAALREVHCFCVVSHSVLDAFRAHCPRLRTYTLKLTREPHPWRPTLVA

[2] = target: T2, endogenous Fbxl8 of U2OS cells (human (endogenous in U2OS)) (UniProt Q96CD0); assay: co-IP; endogenous proteins of U2OS cells, harvested 5 hours after MG132 treatment; anti-Fbxl8 antibody crosslinked to Protein A/G beads; blot for c-myc and cyclin D3
T2 sequence: T1 sequence

Flag-Fbxo31 = target: T3, Flag-Fbxo31 (UniProt Q5XUX0); assay: co-IP; U2OS cells transfected with Flag-tagged F-box proteins, MG132 (10 μM) for 6 hours; EBC buffer; precipitated with anti-Flag beads; blot for endogenous c-myc
T3 sequence: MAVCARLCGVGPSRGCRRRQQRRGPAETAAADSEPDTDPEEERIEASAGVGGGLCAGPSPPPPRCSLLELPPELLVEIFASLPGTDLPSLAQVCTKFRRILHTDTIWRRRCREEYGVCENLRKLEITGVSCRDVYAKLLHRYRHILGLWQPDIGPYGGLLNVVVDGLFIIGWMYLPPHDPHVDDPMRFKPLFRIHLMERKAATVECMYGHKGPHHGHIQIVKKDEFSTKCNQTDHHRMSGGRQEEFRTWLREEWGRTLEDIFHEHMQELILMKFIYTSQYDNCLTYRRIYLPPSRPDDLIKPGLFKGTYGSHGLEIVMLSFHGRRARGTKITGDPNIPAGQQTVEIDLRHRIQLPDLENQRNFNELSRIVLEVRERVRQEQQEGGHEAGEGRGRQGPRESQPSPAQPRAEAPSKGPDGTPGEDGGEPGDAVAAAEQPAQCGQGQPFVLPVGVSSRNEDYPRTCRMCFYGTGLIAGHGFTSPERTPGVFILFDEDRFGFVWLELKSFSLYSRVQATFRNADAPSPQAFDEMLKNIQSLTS

Flag-Fbxw7 = Flag-Fbxw7 (UniProt Q969H0); assay: as above
[3] = target: T4, Flag-Fbxl8 (F-box and Leucine Rich Repeat Protein 8), wild type, expressed in U2OS cells (UniProt Q96CD0); assay: as above
T4 sequence: T1 sequence

Row | Substance | binding [1] | binding [2] | binding (Flag-Fbxo31) | binding (Flag-Fbxw7) | binding [3]
1 | Skp1 (SCF component co-expressed in Sf9 cells) (from UniProt P63208 1-163) | binds |  |  |  | 
2 | endogenous c-myc of U2OS cells (from UniProt P01106 1-454) |  | binds | no binding | binds | binds
3 | endogenous cyclin D3 of U2OS cells (from UniProt P30281 1-292) |  | binds |  |  | 
